# Assay results reported in the supplement of paper PMC4604168 (melanoma cell lines).
# This is one part of the list. Single values are uncertain, as repeats are few or missing.
# Key:
# Experiment in all cases: cell count relative to DMSO control; melanoma cells; higher = more viable cells
# Conditions in all cases: library dose: standard library concentration; 72 h
# G361 = system: G361
# IPC-298 = system: IPC-298
# IST-MEL1 = system: IST-MEL1
# LB2518-MEL = system: LB2518-MEL
# LOXIMVI = system: LOXIMVI
# MEL-HO = system: MEL-HO
# MZ2-MEL = system: MZ2-MEL
# MeWo = system: MeWo
# RPMI7951 = system: RPMI7951
# RVH-421 = system: RVH-421
# SkMel28 = system: SkMel28
# SkMel2 = system: SkMel2
# SkMel30 = system: SkMel30
# SkMel5 = system: SkMel5
# UACC257 = system: UACC257
# UACC62 = system: UACC62
# WM115 = system: WM115
# WM1716 = system: WM1716
# WM3526 = system: WM3526
# 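Also: cells treated in 1,536-well plates, then fixed and DAPI-stained, with nuclei counted from automated high-throughput microscope images.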
SMILES,cell count (G361),cell count (IPC-298),cell count (IST-MEL1),cell count (LB2518-MEL),cell count (LOXIMVI),cell count (MEL-HO),cell count (MZ2-MEL),cell count (MeWo),cell count (RPMI7951),cell count (RVH-421),cell count (SkMel28),cell count (SkMel2),cell count (SkMel30),cell count (SkMel5),cell count (UACC257),cell count (UACC62),cell count (WM115),cell count (WM1716),cell count (WM3526)
"CNC(=O)c1cc(Oc2ccc(NC(=O)Nc3ccc(Cl)c(C(F)(F)F)c3)cc2)ccn1 [sorafenib] + c1cc(-c2cnn3cc(-c4ccc(OCCN5CCCCC5)cc4)cnc23)ccn1 [Dorsomorphin] (first compound 2 µM, partner dose 2 µM)",61.8%,96.7%,81.3%,59.1%,90.7%,87.1%,74.3%,51.6%,47.7%,102%,83.4%,80.2%,82.4%,59.2%,72%,72.8%,65.6%,71%,75.2%
"CNC(=O)c1cc(Oc2ccc(NC(=O)Nc3ccc(Cl)c(C(F)(F)F)c3)cc2)ccn1 [sorafenib] + O=C1NC(=O)/C(=C/c2ccc(-c3ccc(F)cc3O)o2)S1 [AS252424] (first compound 2 µM, partner dose 5 µM)",87.6%,95.8%,107%,89.4%,133%,98.7%,96.7%,96.1%,118%,161%,110%,84.5%,114%,94.2%,91%,125%,94.7%,142%,94.4%
"CS(=O)(=O)CCNCc1ccc(-c2ccc3ncnc(Nc4ccc(OCc5cccc(F)c5)c(Cl)c4)c3c2)o1 [lapatinib] + COc1ccc(COc2ccc(Cc3cnc(N)nc3N)cc2OC)cc1 [GW2580] (first compound 4 µM, partner dose 5 µM)",25.5%,74%,83.7%,78.5%,96.1%,66.5%,32.5%,69.5%,68.8%,78.3%,54.8%,76.2%,90.3%,33.8%,76.4%,41.3%,73.9%,86.5%,62.4%
"CN1CCN(c2ccc3nc(-c4c(N)c5c(F)cccc5[nH]c4=O)[nH]c3c2)CC1 [Dovitinib] + COc1ccc2c(c1)CCC1C2CCC2(C)C(NCCCCCCN3C(=O)C=CC3=O)CCC12 [U73122] (first compound 0.5 µM, partner dose 2 µM)",91.7%,99.5%,97.8%,65.1%,70.7%,104%,75.8%,58.8%,59.9%,113%,74.8%,83.2%,43.4%,59.5%,91.2%,90.4%,94.1%,82.4%,80.7%
"CNC(=O)c1cc(Oc2ccc(NC(=O)Nc3ccc(Cl)c(C(F)(F)F)c3)cc2)ccn1 [sorafenib] + Oc1cc(-c2nc(-c3ccccc3)[nH]c2-c2ccncc2)ccc1Cl [L779450] (first compound 2 µM, partner dose 1 µM)",69.8%,75.2%,82.4%,93.2%,103%,88.3%,105%,77.5%,78.6%,82.9%,38.4%,26%,88.2%,60.4%,92.4%,60.8%,63.2%,70.2%,58.8%
"CNC(=O)c1cc(Oc2ccc(NC(=O)Nc3ccc(Cl)c(C(F)(F)F)c3)cc2)ccn1 [sorafenib] + O=c1cc(-c2cccc3c2Sc2ccccc2S3)oc(N2CCOCC2)c1 [KU55933] (first compound 2 µM, partner dose 5 µM)",70.6%,91.3%,90.2%,102%,110%,87%,106%,77.2%,83.1%,122%,86.4%,77.6%,98.4%,82.9%,79.8%,89.2%,88.9%,94.9%,60.4%
"CN1CCN(c2ccc3nc(-c4c(N)c5c(F)cccc5[nH]c4=O)[nH]c3c2)CC1 [Dovitinib] + COC(=O)c1sccc1S(=O)(=O)Nc1ccc(Nc2ccccc2)cc1OC [GSK0660] (first compound 0.5 µM, partner dose 5 µM)",78.2%,73.6%,88.2%,59.2%,132%,74%,59.4%,70.9%,137%,103%,59%,80%,75%,62.7%,70.7%,93.7%,78.9%,96%,78.7%
"C=CCNC1=C2C[C@@H](C)C[C@H](OC)[C@H](O)[C@@H](C)/C=C(\C)[C@H](OC(N)=O)[C@@H](OC)/C=C\C=C(/C)C(=O)NC(=CC1=O)C2=O [Tanespimycin] + CCCCCCCCCCCC1=C(O)C(=O)C=C(O)C1=O [Embelin] (first compound 0.01 µM, partner dose 6 µM)",52.4%,73%,52.2%,84.9%,86.8%,63.6%,84.8%,65.2%,34.6%,18.7%,45%,78.9%,86.1%,58.6%,82.9%,68.1%,19.7%,55.1%,80.9%
"CN1CCN(c2ccc3nc(-c4c(N)c5c(F)cccc5[nH]c4=O)[nH]c3c2)CC1 [Dovitinib] + CC(C)CCN1c2nc(Nc3cc(F)c(O)c(F)c3)ncc2N(C)C(=O)C1C [BID1870] (first compound 0.5 µM, partner dose 1 µM)",58.9%,59.8%,66.2%,46.1%,77.5%,66%,47.5%,50.4%,90.3%,80.5%,60.5%,49.8%,101%,67.1%,87.7%,71.4%,86.4%,98%,64.6%
"C=CCNC1=C2C[C@@H](C)C[C@H](OC)[C@H](O)[C@@H](C)/C=C(\C)[C@H](OC(N)=O)[C@@H](OC)/C=C\C=C(/C)C(=O)NC(=CC1=O)C2=O [Tanespimycin] + c1cc(-c2cnn3cc(-c4ccc(OCCN5CCCCC5)cc4)cnc23)ccn1 [Dorsomorphin] (first compound 0.01 µM, partner dose 2 µM)",57.7%,83.7%,81.2%,67.1%,128%,89.7%,76.1%,59.1%,31.4%,97.8%,29.9%,86%,111%,61.1%,74.7%,46.6%,29.2%,65%,76%
"CNC(=O)c1cc(Oc2ccc(NC(=O)Nc3ccc(Cl)c(C(F)(F)F)c3)cc2)ccn1 [sorafenib] + O=S(=O)(c1ccccc1)N(CC(F)(F)F)c1ccc(C(O)(C(F)(F)F)C(F)(F)F)cc1 [T0901317] (first compound 2 µM, partner dose 7 µM)",68.4%,80.4%,97.8%,105%,165%,106%,101%,80.9%,78.9%,95.3%,92.4%,104%,79.2%,71.4%,96.3%,72.2%,95.4%,99.9%,84.1%
"C=CCNC1=C2C[C@@H](C)C[C@H](OC)[C@H](O)[C@@H](C)/C=C(\C)[C@H](OC(N)=O)[C@@H](OC)/C=C\C=C(/C)C(=O)NC(=CC1=O)C2=O [Tanespimycin] + COC(=O)c1sccc1S(=O)(=O)Nc1ccc(Nc2ccccc2)cc1OC [GSK0660] (first compound 0.01 µM, partner dose 5 µM)",93.9%,102%,106%,110%,150%,116%,96.8%,81.6%,44.3%,146%,78.7%,92.5%,115%,122%,92.7%,67%,35.1%,119%,105%
"CN1CCN(c2ccc3nc(-c4c(N)c5c(F)cccc5[nH]c4=O)[nH]c3c2)CC1 [Dovitinib] + CCc1ccc(CCOc2ccc(CC3SC(=O)NC3=O)cc2)nc1 [pioglitazone] (first compound 0.5 µM, partner dose 10 µM)",67.6%,73.1%,75.8%,53.5%,84.6%,73.7%,50%,52.7%,85.8%,71%,51.8%,72.9%,85.4%,67.7%,74.6%,87.9%,78.1%,74%,77.7%
"C=CCNC1=C2C[C@@H](C)C[C@H](OC)[C@H](O)[C@@H](C)/C=C(\C)[C@H](OC(N)=O)[C@@H](OC)/C=C\C=C(/C)C(=O)NC(=CC1=O)C2=O [Tanespimycin] + Oc1nc(-c2ccc(C(F)(F)F)cc2)nc2c1CSCC2 [XAV939] (first compound 0.01 µM, partner dose 10 µM)",69%,92.6%,84.2%,74.1%,111%,81.5%,89.2%,71.1%,22.1%,62.9%,67.6%,91.6%,80.4%,36.3%,101%,41.3%,30.1%,41.1%,75%
"CS(=O)(=O)CCNCc1ccc(-c2ccc3ncnc(Nc4ccc(OCc5cccc(F)c5)c(Cl)c4)c3c2)o1 [lapatinib] + COC(=O)c1sccc1S(=O)(=O)Nc1ccc(Nc2ccccc2)cc1OC [GSK0660] (first compound 4 µM, partner dose 5 µM)",74.9%,78%,109%,106%,101%,79.1%,64.2%,64.2%,64.6%,89.1%,62.1%,87.2%,69.6%,55%,81.9%,51.4%,96.8%,82.9%,74.6%
"C[C@@H](Oc1cc(-c2cnn(C3CCNCC3)c2)cnc1N)c1c(Cl)ccc(F)c1Cl [Crizotinib] + O=C(O)C(=O)Nc1sc2c(c1C(=O)O)CCNC2 [TCS401] (first compound 1 µM, partner dose 8.33333 µM)",79.9%,89.1%,100%,78%,107%,90.1%,91.2%,70%,90.6%,83%,61.8%,92.8%,110%,62.8%,73.2%,65.1%,67%,75.9%,80.1%
